# From paper PMC7819943, “Rice protein-binding microarrays: a tool to detect cis-acting elements near promoter regions in rice”
# Some of the results follow.
# Target: T1, OsWOX13 (Oryza sativa, UniProt Q5QMM3 1-267)
# T1 sequence: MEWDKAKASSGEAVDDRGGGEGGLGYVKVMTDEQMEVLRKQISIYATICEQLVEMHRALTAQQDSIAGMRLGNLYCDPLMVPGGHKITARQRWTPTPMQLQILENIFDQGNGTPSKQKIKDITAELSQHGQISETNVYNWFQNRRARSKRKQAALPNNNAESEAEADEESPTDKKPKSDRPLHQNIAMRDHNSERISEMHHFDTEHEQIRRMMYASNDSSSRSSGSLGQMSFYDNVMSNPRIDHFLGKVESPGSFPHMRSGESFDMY
# Experiment: protein-binding microarray (RPBM); PBS, 2% BSA, 51.3 ng/ul salmon testes DNA, 50 uM zinc acetate, 200 nM TF, 25 C, 1 h; high values mean tight binding
# Conditions: protein: recombinant; tags: N-terminal polyhistidine and DsRed monomer fusion (pET32a); label: CyDye5-dUTP incorporated in the synthesized complementary strand; 3' TTTTT single-stranded linker to array surface; dsDNA, one strand shown
# Procedure, shortened: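 Transcription factors were made in E. coli BL21-CodonPlus as N-terminal fusions to a polyhistidine tag and DsRed, then purified on Ni–NTA. After primer extension with Cy5-dUTP and blocking with 2% BSA, a custom Agilent array was exposed for 1 h at 25 °C to 200 nM protein in PBS, 2% BSA, salmon testes DNA and 50 µM zinc acetate. Washed arrays were scanned on an Axon 4000B, and the binding signal is per-feature fluorescence intensity in arbitrary units.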
row,Sequence,binding signal
1,AAATGGCTAAATGGTTGATTACCAGCTTACTCTTGAATTGCGGAGTCACCTAGTGCAG,6640 fluorescence intensity (a.u.)
2,CTATATAAATTTTATATATACTAACTTTGTATGTTGCAACCGGAGTCACCTAGTGCAG,4150 fluorescence intensity (a.u.)
3,TTGATATTCTTTATATGATTATATAGGATTGGTCTCCCTCCGGAGTCACCTAGTGCAG,3530 fluorescence intensity (a.u.)
4,CACAATAATTACTACTCCCTCCGTCCCAGAATATACTAATCGGAGTCACCTAGTGCAG,10100 fluorescence intensity (a.u.)
5,TTCACAATTTGATGCATAAAAGAAATCAATTGGGCCGGTGCGGAGTCACCTAGTGCAG,3840 fluorescence intensity (a.u.)
6,TGCCTAATTGTTGCCATTGATTTGTTAGCCACACCTTTGGCGGAGTCACCTAGTGCAG,40300 fluorescence intensity (a.u.)
7,GCTCTGATTGCTCTGACCCAACCATTCTGATCAAGCATAGCGGAGTCACCTAGTGCAG,25000 fluorescence intensity (a.u.)
8,TTTGTGATAAACAGATACACTAAATCTATAGTTTTGGGAACGGAGTCACCTAGTGCAG,4340 fluorescence intensity (a.u.)
9,AGATAACAAATTGGACATACCATTACCAACATAACCTTAGCGGAGTCACCTAGTGCAG,11500 fluorescence intensity (a.u.)
10,ATTGATAGTATATAATATATCACATTTCATACTTCCTTCGCGGAGTCACCTAGTGCAG,5840 fluorescence intensity (a.u.)
11,GCAGACTGATTGCAAGAGTTGAGTAAGATCCTGGATCTCTCGGAGTCACCTAGTGCAG,27900 fluorescence intensity (a.u.)
12,TTTGATGTGATGGAAAAGTTGAAAGTTTGAAGTAAACTCGCGGAGTCACCTAGTGCAG,9880 fluorescence intensity (a.u.)
13,AAACTGATTGAAAGGCCCCACCAACCAGAAAAGCACCATCCGGAGTCACCTAGTGCAG,32100 fluorescence intensity (a.u.)
14,CTGAAATTGAAGTTAAATGCTACTAGTAATAATTGTACTACGGAGTCACCTAGTGCAG,30100 fluorescence intensity (a.u.)
15,TCTGGAAATTTGGGCTAAATTTCTGGGCGTGACACTACTCCGGAGTCACCTAGTGCAG,4830 fluorescence intensity (a.u.)
16,AAGAATAGACGAGGCTAATTAAGCTAAAGACTTTCTTGGACGGAGTCACCTAGTGCAG,16700 fluorescence intensity (a.u.)
17,CCCACTTATTTGATTTGTCTTAATTCCCATAGCAATTCTTCGGAGTCACCTAGTGCAG,15100 fluorescence intensity (a.u.)
18,CGATGACTGAATTATCACACTTACGTATGGTGACTATTAACGGAGTCACCTAGTGCAG,11600 fluorescence intensity (a.u.)
19,GAACCATTTCAACGCGAGGTTGATTGTCTCATGAGGATTACGGAGTCACCTAGTGCAG,3260 fluorescence intensity (a.u.)
20,AATAATAACTTAATTAATTATGTACTAATGACTCAATTTTCGGAGTCACCTAGTGCAG,26000 fluorescence intensity (a.u.)
21,AACAAATAAATTACTATTAGAGTAGGATGTTCGGCAAAGTCGGAGTCACCTAGTGCAG,7390 fluorescence intensity (a.u.)

row,Sequence,binding signal
1,TCCCACATTTATATTGATGTATATATATATCTAGATTCATCGGAGTCACCTAGTGCAG,3440 fluorescence intensity (a.u.)
2,CCGACGAGGCTGTAATTGGAGTATTTCCATTTCCTCTCTCCGGAGTCACCTAGTGCAG,5780 fluorescence intensity (a.u.)
3,ACATGTCACAGAGAATCAATCATTCACAATTAAACAGTGACGGAGTCACCTAGTGCAG,7780 fluorescence intensity (a.u.)
4,CTCAATTATTGTTTCATTGAGCATTGTTTCCTACCATACACGGAGTCACCTAGTGCAG,13900 fluorescence intensity (a.u.)
5,TCTAAACTACAAGATGATAATAATTATTTTCTTAGTCTTTCGGAGTCACCTAGTGCAG,9040 fluorescence intensity (a.u.)
6,TATTGAAATTAATCAACCATCACCTACAACTCATGAATTTCGGAGTCACCTAGTGCAG,5320 fluorescence intensity (a.u.)
7,ACTATTCCTAATTAATAGATAAACTGCCATGCCGCATTCTCGGAGTCACCTAGTGCAG,14800 fluorescence intensity (a.u.)
8,ACCAATAATTAGTTGCAGCTAATAAAAGTCATCTGTAGCCCGGAGTCACCTAGTGCAG,25400 fluorescence intensity (a.u.)
9,ATCCATCAATTCTAATTCTAATTCAAATTTCTATTCTATTCGGAGTCACCTAGTGCAG,3620 fluorescence intensity (a.u.)
10,AACCCTGATTTCCGTGCTCAACGTTTGACCGTCCGTCTTGCGGAGTCACCTAGTGCAG,4670 fluorescence intensity (a.u.)
11,TACCAATTGATGTGATAAATTATTATAACTAAAATTTCTGCGGAGTCACCTAGTGCAG,41200 fluorescence intensity (a.u.)
12,CTTACAAATTTACACTAGGCATTTGCGTTTCCCCGGTAAACGGAGTCACCTAGTGCAG,3460 fluorescence intensity (a.u.)
13,TAAGGGATTGACTGTGCTAAAAGAATCTTAATTGTATAGTCGGAGTCACCTAGTGCAG,34600 fluorescence intensity (a.u.)
14,TTGAGGAGATTGGGAAGATACGCAAAACGAGGTGAGCTATCGGAGTCACCTAGTGCAG,3980 fluorescence intensity (a.u.)
15,GCAACACAAGAATTAATTTTACCGGACTTTCACACGAATTCGGAGTCACCTAGTGCAG,3560 fluorescence intensity (a.u.)
16,CACAAAACTAATTACGATATACCATTCTCATGTAGACGTTCGGAGTCACCTAGTGCAG,13700 fluorescence intensity (a.u.)
17,TGTAGATAGACTTTGTTTGGTATTACTTGGTTACCTGTCACGGAGTCACCTAGTGCAG,3310 fluorescence intensity (a.u.)
18,TTTTATTTAAATATTACATTAATAAAATGGTGTAACGCCACGGAGTCACCTAGTGCAG,3740 fluorescence intensity (a.u.)
19,ACCCTCTTCTATCAACTAATCACAACCATTCTCTATTTAACGGAGTCACCTAGTGCAG,5190 fluorescence intensity (a.u.)
20,TGACAAATCAATTGGAGAGCTAGTTATATGGGTGTTTGGACGGAGTCACCTAGTGCAG,4750 fluorescence intensity (a.u.)
21,GTCACATCATTCTAATTTCAATTAAACTTCAAATTTTGGCCGGAGTCACCTAGTGCAG,12900 fluorescence intensity (a.u.)
